This note sets out measurements from the RNAGym collection of RNA variant scans (doi:10.1073/pnas.2313332121).

Variants at the floor of the assay are shown more often than the library holds them.

The labels stand for the following.
B1: TPR 5TU (parent)
chain: GGAUCUUCUCGAUCUAACAAAAAAGACAAAUCUGCCACAAAGCUUGAGAGCAUCUUCGGAUGCAGAGGCGGCAGCCUUCGGUGGCGCGAUAGCGCCAACGUUCUCAACUAUGACACGCAAAACGCGUGCUCCGUUGAAUGGAGUUUAUCAUG

Variants of B1 are the subject of the data set. As to the kind of experiment: polymerase ribozyme fitness, log enrichment relative to wild type (log ratio); higher = more active; in vitro selection for triplet polymerase activity. In a few lines:
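A single round of triplicate in vitro selection, including frozen incubation at −7 °C, was applied to PCR-built, transcribed mutant libraries of each subunit of a heterodimeric triplet polymerase ribozyme. Illumina sequencing of input and output libraries retained genotypes with ≥10 input reads and ≥1 read per output. Fitness is the base-2 logarithm of genotype enrichment divided by wild-type enrichment, from inverse-variance-weighted replicate averages.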
Take A41U U44G U56A A91C A142C: the “polymerase ribozyme fitness (log ratio)” value is at most -4.2.
For the variant A41C U55G A66G C87U, the “polymerase ribozyme fitness (log ratio)” value is at most -4.2.
Take C43G C85G C87U C96U C118A A119U A120G: the “polymerase ribozyme fitness (log ratio)” value is at most -4.2.
Turning to A40U U82G G92A, the “polymerase ribozyme fitness (log ratio)” value is -2.82.
As to G42U G83A, the “polymerase ribozyme fitness (log ratio)” value is at most -4.2.
A40U G67U C76G G128C G141U A142C: the “polymerase ribozyme fitness (log ratio)” value was at most -4.2.
C43A A47U C76U C85U C132A: the “polymerase ribozyme fitness (log ratio)” value was at most -4.2.
On to G42A G92C U104C, for which the “polymerase ribozyme fitness (log ratio)” value was at most -4.2.
To G42C U55A U61A C76G G124C A147C belongs at most -4.2; to A41C A107U C108G, at most -4.2; to C43U G67U, at most -4.2.
To A41C G71A C76U G92A G117A belongs at most -4.2.
C43U U56A C63G C125A A137C U146G: the “polymerase ribozyme fitness (log ratio)” value was at most -4.2.
Consider G42C C75A A91U, for which the “polymerase ribozyme fitness (log ratio)” value was at most -4.2.
In the case of C43U G59C G80C, the “polymerase ribozyme fitness (log ratio)” value was at most -4.2.
Then A41G U104G C125G, with -1.21.
As for A41C C93U A97C U102G, the “polymerase ribozyme fitness (log ratio)” value is at most -4.2.
Then G42C C85G U127A, with at most -4.2; and G42A G58C C79G C87U A115U, with at most -4.2; and G42C G58C G59A A60U G62A G70A C85U C95A A110G U134C, with at most -4.2.
With C43U G50C C75G C79G G84A, the “polymerase ribozyme fitness (log ratio)” value is at most -4.2.
For G42U C85A C99U A106G A138U A150G, the “polymerase ribozyme fitness (log ratio)” value was at most -4.2.
For the variant C43G G94A, the “polymerase ribozyme fitness (log ratio)” value was -3.81.
To G42C G68C C69G C96U belongs at most -4.2; to A41U A89U C93U G117U A147U, -2.89.
With A41G U53A U56C C76A A98G, the “polymerase ribozyme fitness (log ratio)” value is -1.92.
For A40U U53C, the “polymerase ribozyme fitness (log ratio)” value was found to be 0.103.
As to A41C A49G C99G C116U, the “polymerase ribozyme fitness (log ratio)” value is at most -4.2.
To A41U G59A A73G A89U C93G A107G belongs at most -4.2.
To G42A G50U A73C A91C G92C C95G U127A U144C belongs at most -4.2; to A41G U45A A91C G94A C116A C123U C131A, at most -4.2; to C43U G59C U78G C96U U101G G140U, at most -4.2.
For the variant A41U G83U G84U A98U A120U G124A, the “polymerase ribozyme fitness (log ratio)” value is -3.95.
Then A41C A106C, with -0.881.
Then C43U U53A G68U G86A A106U A147U, with at most -4.2; and C43U U55A G67C U77A C85A A115C, with at most -4.2; and C43G C85G U134G, with at most -4.2.
Then A41G C63G G74A U109G U145G, with at most -4.2.
For the variant G42A C54U C93G A120U G140U, the “polymerase ribozyme fitness (log ratio)” value is at most -4.2.
In the case of C43G G84A A89C U101G G141A U146G, the “polymerase ribozyme fitness (log ratio)” value is at most -4.2.
As to G42A U55A G62C G71A C85A, the “polymerase ribozyme fitness (log ratio)” value is at most -4.2.
Regarding C43A C75A U78C C85U, the “polymerase ribozyme fitness (log ratio)” value was at most -4.2.
As for C43U U45A A73G G88A C103G, the “polymerase ribozyme fitness (log ratio)” value was at most -4.2.
Turning to G42U U45G U61G C87G C105G G141C, the “polymerase ribozyme fitness (log ratio)” value is at most -4.2.
On to A41U G42A G68U G94U A98G C118A A119U, for which the “polymerase ribozyme fitness (log ratio)” value was at most -4.2.
To C43U A66U G83A belongs at most -4.2; to A41G G71C G74U C93U A98G, at most -4.2.
To A41C G65C C79G G117C belongs at most -4.2; to C43U C103A C125A G136U U144A, at most -4.2; to A41G C54G U104A A119G G126U, -1.16.
Consider C43U G68C C96G C129A G141A, for which the “polymerase ribozyme fitness (log ratio)” value is at most -4.2.
On to A41G C51U A89C C95A U135C U148A, for which the “polymerase ribozyme fitness (log ratio)” value was at most -4.2.
As to G42C U44G G88A A97C, the “polymerase ribozyme fitness (log ratio)” value was at most -4.2.
Then A41C A49C C87U A113U U144G U151C, with at most -4.2.
Consider A41C C85G A113C, for which the “polymerase ribozyme fitness (log ratio)” value is -4.19.
Then A40U U61A C79A U104G, with at most -4.2; and G42A U77G G83C A110G U145A, with at most -4.2.
Turning to G42C G50U G74A C95G C123U, the “polymerase ribozyme fitness (log ratio)” value is at most -4.2.
For the variant A41C A97G A121G, the “polymerase ribozyme fitness (log ratio)” value was -0.295.
Regarding A41U U82G G86U A97U G124C, the “polymerase ribozyme fitness (log ratio)” value is -3.18.
With G42C U44A C54G A91U C99U G143C U145C, the “polymerase ribozyme fitness (log ratio)” value is at most -4.2.
With A41C G67A U148C, the “polymerase ribozyme fitness (log ratio)” value was at most -4.2.
Turning to A41G C54G G81A C96G C118U, the “polymerase ribozyme fitness (log ratio)” value was at most -4.2.
To A41C C79G G94A C99A belongs at most -4.2; to G42C G88U C95A, at most -4.2.
As for A41G A47G U56A C63U A73U C105U C125U, the “polymerase ribozyme fitness (log ratio)” value was at most -4.2.
Consider C43U G86U, for which the “polymerase ribozyme fitness (log ratio)” value was -4.15.
Then G42C G48A C103A U144C, with at most -4.2; and A41G C96A, with 0.0745; and G42U A98U U102G A120U C132G U135A A147C, with at most -4.2.
For A40U U56A G80C G84U C99A G143U, the “polymerase ribozyme fitness (log ratio)” value was at most -4.2.
For A41C A47G G68A, the “polymerase ribozyme fitness (log ratio)” value is at most -4.2.
For the variant G42U U56A U82G G92U C118G, the “polymerase ribozyme fitness (log ratio)” value is at most -4.2.
For the variant C43G C54U A66G C93G, the “polymerase ribozyme fitness (log ratio)” value was at most -4.2.
Consider G42A U53G C87A, for which the “polymerase ribozyme fitness (log ratio)” value was at most -4.2.
C43A A47C A49G U77C C85U A138U: the “polymerase ribozyme fitness (log ratio)” value is at most -4.2.
For G42U G74C C123U, the “polymerase ribozyme fitness (log ratio)” value was at most -4.2.
Turning to C43U A138C, the “polymerase ribozyme fitness (log ratio)” value is at most -4.2.
G42C C63U G92U C95U A122C: the “polymerase ribozyme fitness (log ratio)” value was at most -4.2.
Then G42U C57U U82A, with at most -4.2; and C43G C54A G58A U77A A91U C131A A142C, with at most -4.2; and G42A G48U A52U C75A U90C, with at most -4.2.
Regarding A41G C75A U82C A98U U104A U135G, the “polymerase ribozyme fitness (log ratio)” value was at most -4.2.
As to A40U C87U, the “polymerase ribozyme fitness (log ratio)” value was -0.375.
